Measurements as given in patent EP4628104A1, “ANTI-CLDN18.2 ANTIBODY-DRUG CONJUGATE, AND PHARMACEUTICAL COMPOSITION THEREOF AND USE THEREOF” (priority 2022, dated 2024).

How the values were obtained:
[1] = Aggregate verification by gel (SEC) chromatography; type: physicochemical; details: peak area percentage, 280 nm, ADCs prepared in Example 3
Protocol: Components of the anti-CLDN18.2 antibody-drug conjugates prepared in Example 3 were separated using a gel chromatographic column. Elution was performed using a neutral buffer containing 10% isopropanol as the mobile phase. The components were eluted sequentially in descending order according to their molecular weights. The gel chromatographic column used was an ACQUITY UPLC Protein BEH SEC Column 200Å, 1.7 µm, 4.6 × 300 mm, and the column temperature was 25 °C. The mobile phase was 50 mM phosphate buffered saline-200 mM sodium chloride-10% isopropanol at pH 7.0 (12.53 g of disodium hydrogen phosphate dodecahydrate, 2.33 g of sodium dihydrogen phosphate dihydrate, and 11.69 g of sodium chloride were weighed, about 800 mL of ultrapure water was added, and the mixture was stirred until complete dissolution; 100 mL of isopropanol was added, ultrapure water was added to bring the volume to 1000 mL, and the mixture was mixed uniformly and then filtered through a 0.22 µm filter). 20 µg of the anti-CLDN18.2 antibody conjugates were precisely taken and injected into a liquid chromatograph, and the detection was performed at the wavelength of 280 nm. The flow rate was 0.3 mL/min, and isocratic elution was performed for 15 min.
Data were processed, and the results were quantitatively analyzed using the area normalization method. The peak area percentages of the aggregate, the monomer, and the low molecular weight impurities of the anti-CLDN18.2 antibody-drug conjugates were calculated. The aggregate peak appeared before the main peak, the monomer peak was the main peak, and the low molecular weight impurity peaks appeared after the main peak. The content proportions of the monomer, the aggregate, and the low molecular weight impurities of the anti-CLDN18.2 antibody-drug conjugates are shown in Table 1. Table 1. The content proportions of the monomer, the aggregate, and the low molecular weight impurities of the anti-CLDN18.2 antibody-drug conjugates

NIH-3T3-CLDN18.1 cells = assay: Non-specific killing of CLDN18.2-negative cells; type: cell-based, Mouse; details: up to 20 nM, 96 h; ADCs of Example 5
Protocol: To detect the non-specific killing effect of the anti-CLDN18.2 antibody-drug conjugates prepared in Example 5 on CLDN18.2-negative cells, the killing activity detection was performed using CLDN18.1-overexpressing NIH-3T3.
cDNA encoding human CLDN18.1 (SEQ ID NO: 66) was obtained by gene synthesis and then subcloned into an expression vector pcDNA3.1. The expression vector was transfected into NIH-3T3 cells according to the instructions of the Lipofectamine 2000 transfection reagent (Thermo, Cat. No. 11668019) to obtain CLDN18.1-overexpressing NIH-3T3 -CLDN18.1.
NIH-3T3-CLDN18.1 cells in the logarithmic growth phase were taken, adjusted to a cell density of 1 × 10^4 cells/mL, and added to a 96-well plate at 100 µL/well. The cells were placed in an incubator at 37 °C with 5% CO2 for adherence culture overnight. The anti-CLDN18.2 antibody-drug conjugate was prepared with a DMEM medium containing 10% FBS. Cells subjected to overnight adherence culture were taken out. […] Then, 180 µL of the solution was pipetted from each well and transferred to an opaque white plate, bubbles were removed, the chemiluminescence value was read, and the viability of the cells was calculated. Viability(%) = (Luminescence value of the experimental group)/(Luminescence value of the control group) × 100% [formula]
Data were analyzed using Graphpad Prism 5.

U2OS-Luciferase = assay: Bystander effect in mixed culture of positive and negative cells; type: cell-based, Human; details: viability of U2OS-Luciferase negative cells co-cultured with CLDN18.2-overexpressing BxPC-3, 120 h, up to 33.3 nM; ADCs of Example 5
Protocol: CLDN18.2-overexpressing BxPC-3 was selected as positive cells and U2OS stably expressing luciferase (U2OS-Luciferase) was selected as negative cells. These cells were mixed and cultured to detect the bystander effect of the anti-CLDN18.2 antibody-drug conjugates prepared in Example 5.
Positive cells and negative cells in the logarithmic growth phase were taken, both adjusted to a density of 4 × 10^4 cells/mL, and added to a 96-well plate at 50 µL/well. The anti-CLDN18.2 antibody-drug conjugate was subjected to gradient dilution with the McCoy's 5A complete medium (GIBCO, Cat. No. 16600-082) containing 10% FBS and added to the 96-well plate at 50 µL/well. The initial concentration of the anti-CLDN18.2 antibody-drug conjugate is 33.3 nM, with a 5-fold gradient dilution for a total of 8 concentrations. The 96-well plate was incubated in an incubator at 37 °C with 5% CO2 for 120 h. […] The chemiluminescence value was determined using a microplate reader, and the viability of U2OS-Luciferase cells was calculated. Viability(%) = (Luminescence value of the experimental group)/(Luminescence value of the control group) × 100% [formula]
Data were analyzed using GraphPad Prism 5.

[2] = Pharmacokinetic evaluation in rats (total antibodies, ELISA); type: in vivo; details: SD rats, intravenous, 10 mg/kg, Mean ± SD, ADCs of Example 3
Protocol: SD rats (160-180 g) (source: Laboratory Animal Operation Department, Shanghai Institute for Biomedical and Pharmaceutical Technologies) were randomly divided into 3 groups of 4 rats each, and were intravenously injected with 15F9-DDDXd, hz28G3-1.1-DDDXd, and hz28G3-1.1-DDDXd prepared in Example 3 at a dose of 10 mg/kg, respectively. Before and after the administration, SD rats were all not fasted and had free access to water.
About 0.2 mL of blood was collected from the jugular vein at 30 min, 2 h (± 1 min), 8 h (± 1 min), 24 h (± 5 min), 48 h (± 5 min), 4 d (± 10 min), 7 d (± 10 min), 10 d (± 10 min), 14 d (± 20 min), 21 d (± 20 min), or 28 d (± 20 min) after the administration, anticoagulated with EDTA-K2, and centrifuged at 4 °C for 10 min at 4000 rpm to separate the plasma.
An appropriate volume of the separated plasma was pipetted and diluted with a sample diluent (PBST containing 1% BSA) at a minimum dilution factor of (20-fold). For a sample that required a higher dilution, it was further diluted with a sample diluent containing 5% blank rat plasma. Then, the mixture was vortexed until it was mixed uniformly to obtain the test sample. The quantitative range of the detection method was 19.53125 ng/mL-2500 ng/mL. AffiniPure Goat Anti-Human IgG, F(ab')2 fragment specific (Jackson ImmunoResearch, 109-005-097) was diluted with the PBS buffer (pH 7.4) to a concentration of 1 µg/mL, added to a 96-well plate at 100 µL/well for coating, and incubated at 4 °C overnight. The 96-well plate was washed with PBST (PBS containing 0.5% of Tween-20). Then, the blocking buffer (PBST containing 1% of BSA) was added at 200 µL/well, and the plate was blocked at room temperature for 2-3 h. The blocking buffer was discarded. The diluted standard curve sample, the quality control sample, and the above test sample were added at 100 µL/well, and the mixture was incubated at room temperature for 2 h. After the 96-well plate was washed with PBST, Goat anti-Human Kappa Light Chain Cross-Adsorbed Secondary Antibody, HRP (Thermofisher, A18859) was added according to a volume ratio of 1:10,000, and the mixture was incubated at room temperature for 1 h. After the 96-well plate was washed with PBST, the TMB solution (Tiangen, Cat. No. PA107-01) was added at 100 µL/well, and the mixture was incubated at room temperature for 14 min in the dark. The reaction was stopped with 1 M H2SO4. The absorbance value was read using a Tecan Spark microplate reader at a wavelength of 450 nm/630 nm, and curve fitting was performed using a 4-parameter logistic fit.
Intravenous exposure of the anti-CLDN18.2 antibody-drug conjugates was evaluated by in vivo pharmacokinetics in rats and the mean pharmacokinetic parameters for total antibodies (including antibodies conjugated and unconjugated with cytotoxic drugs) in SD rats of each group were calculated, including drug peak concentration (Cmax), time to peak (Tmax), area under the concentration-time curve (AUC(0-t)), elimination half-life (t1/2), mean residence time (MRT(0-t)), and clearance (CL), as shown in Table 6 below.

B1: hz28G3-1.1-DDDXd (conjugate)
heavy: QVQLVQSGAEVKKPGASVKVSCKTSGYSFTDYLMLWVRQAPGQGLEWMGNINPYYGRTTYALKFKGRVTMTVDRSTSTVYMELSSLRSEDTAVYYCARDGYSLRNAMDYWGQGTLVTVSS[human IgG1 constant region left out here]
light: DIVMTQSPDSLAVSLGERATINCKSSQSLFNSGNQKNYLAWYQQKPGQPPKLLIYGASTRESGVPDRFSGSGSGTDFTLTISSLQAEDVAVYYCQNAHSYPYTFGQGTKVEIKRTVAAPSVFIFPPSDEQLKSGTASVVCLLNNFYPREAKVQWKVDNALQSGNSQESVTEQDSKDSTYSLSSTLTLSKADYEKHKVYACEVTHQGLSSPVTKSFNRGEC
In the case of B1, the Aggregate [1] is reported as 0.80%, the “Low molecular weight impurities” value [1] is reported as 0.10% and the Monomer [1] is reported as 99.10%. For the same molecule, the “killing activity against NIH-3T3-CLDN18.1 cells” value (NIH-3T3-CLDN18.1 cells) was “no killing activity”, the bystander effect (U2OS-Luciferase) was “significant bystander effect” and the “AUC(0-21d)” value [2] was 573 ± 9.4 µg·days/mL. The CL [2] was 15.8 ± 0.879 mL/day/kg, the Cmax [2] was 193 ± 6.67 µg/mL and the “MRT(0-21d)” value [2] was 137 ± 6.19 h. For the same molecule, the Tmax [2] was 0.499 ± 0 h and the t1/2 [2] was 163 ± 35.8 h.
